{"source": "the supplement of paper PMC8728848", "binders": {"B1": {"name": "PX9896A-bth-573-26-573 (Bacteroides thetaiotaomicron) (protein)", "chain": "ETNNLKTKEDMYKYFGTSKSMLTHVYSYMPQGYQLFATSGGIFTEDRYSMRDCASDDGEFGAYADNIQNTNNGNWSPIKTYDDSWTLYRGIRAANSFIAEIAQVDFTRYEHDGQYTNWMKQLKYFPYEARVLRAHYFFELARRYGDIAMPLEVLTEEEANTIGKTPFSEVISFIVSECDDAANNLPDSYVNEPGAEIGRVTKGFAMAVKSKALLYAASKLHNPSMDTELWKKSAKAAIDIINTGLYSLDPQESANNLDSKEVVLMRINGDDSDFEMFNLPLRMTAGTRTSSLIPYSNYPSQNLVDAFETVNGYKVTLENTGWVCEDPAFDPQSPYENRDKRFYRAILANGMSFKDYTIETFKGGADDGIVSQGGSPTGYFLRKYIQEATSFEPGKEAVSKHHWVIYRYAETLLTYAESMVNAFNDVNYTDETYKYSALWAINEVRKNADMPLIPSMGKDEFMERLYNEWRVEFAFEDHRFWDVRRWKIADTTQRELYGVKIEKQADGTFNFYKNLYETRNWRDCMYLYPIPQSELYKNTNLNPQNTGW"}}, "assay_in_all_cases": "glycan array binding signal (z-score within array); higher = stronger binding", "details_in_all_cases": "glycan notation: IUPAC condensed, linker removed", "key": {"Fuc(a1-3)GlcNAc": {"biological_target": "Fuc(a1-3)GlcNAc", "how_it_was_run": "(§1)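 From the Consortium for Functional Glycomics database, 3228 arrays were curated, keeping only those whose protein sequence was available. Binding is given as a within-array Z-score averaged across arrays sharing a protein sequence and across linkers. Negative Z-scores can be read as non-binding.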"}, "[1]": {"biological_target": "Fuc(a1-3)[Gal(b1-4)]Glc6S", "how_it_was_run": "as §1"}, "[2]": {"biological_target": "Fuc(a1-3)[Gal(b1-4)]GlcNAc", "how_it_was_run": "as §1"}, "[3]": {"biological_target": "Fuc(a1-3)[Gal(b1-4)]GlcNAc(b1-2)Man", "how_it_was_run": "as §1"}, "[4]": {"biological_target": "Fuc(a1-3)[Gal(b1-4)]GlcNAc(b1-2)Man(a1-3)[Fuc(a1-3)[Gal(b1-4)]GlcNAc(b1-2)Man(a1-6)]Man(b1-4)GlcNAc(b1-4)GlcNAc", "how_it_was_run": "as §1"}, "[5]": {"biological_target": "Fuc(a1-3)[Gal(b1-4)]GlcNAc(b1-2)Man(a1-3)[Fuc(a1-3)[Gal(b1-4)]GlcNAc(b1-2)Man(a1-6)]Man(b1-4)GlcNAc(b1-4)[Fuc(a1-6)]GlcNAc", "how_it_was_run": "as §1"}, "[6]": {"biological_target": "Fuc(a1-3)[Gal(b1-4)]GlcNAc(b1-3)Gal(b1-3)[Fuc(a1-4)]GlcNAc", "how_it_was_run": "as §1"}, "[7]": {"biological_target": "Fuc(a1-3)[Gal(b1-4)]GlcNAc(b1-3)Gal(b1-4)[Fuc(a1-3)]GlcNAc", "how_it_was_run": "as §1"}, "[8]": {"biological_target": "Fuc(a1-3)[Gal(b1-4)]GlcNAc(b1-3)Gal(b1-4)[Fuc(a1-3)]GlcNAc(b1-3)Gal(b1-4)[Fuc(a1-3)]GlcNAc", "how_it_was_run": "as §1"}, "[9]": {"biological_target": "Fuc(a1-3)[Gal(b1-4)]GlcNAc(b1-3)GalNAc", "how_it_was_run": "as §1"}, "[10]": {"biological_target": "Fuc(a1-3)[Gal(b1-4)]GlcNAc(b1-6)GalNAc", "how_it_was_run": "as §1"}, "[11]": {"biological_target": "Fuc(a1-3)[Gal(b1-4)]GlcNAc(b1-6)[Gal(b1-3)GlcNAc(b1-3)]Gal(b1-4)Glc", "how_it_was_run": "as §1"}, "[12]": {"biological_target": "Fuc(a1-3)[Gal(b1-4)]GlcNAc6S", "how_it_was_run": "as §1"}, "[13]": {"biological_target": "Fuc(a1-3)[Gal3S(b1-4)]Glc", "how_it_was_run": "as §1"}, "[14]": {"biological_target": "Fuc(a1-3)[Gal3S(b1-4)]GlcNAc", "how_it_was_run": "as §1"}, "[15]": {"biological_target": "Fuc(a1-3)[Gal3S(b1-4)]GlcNAc6S", "how_it_was_run": "as §1"}, "[16]": {"biological_target": "Fuc(a1-3)[GalNAc(b1-4)]GlcNAc", "how_it_was_run": "as §1"}, "[17]": {"biological_target": "Fuc(a1-3)[GalNAc(b1-4)]GlcNAc6S", "how_it_was_run": "as §1"}, "Fuc(a1-4)GlcNAc": {"biological_target": "Fuc(a1-4)GlcNAc", "how_it_was_run": "as §1"}, "Fuc(b1-3)GlcNAc": {"biological_target": "Fuc(b1-3)GlcNAc", "how_it_was_run": "as §1"}, "Gal(a1-2)Gal": {"biological_target": "Gal(a1-2)Gal", "how_it_was_run": "as §1"}, "Gal(a1-3)Gal": {"biological_target": "Gal(a1-3)Gal", "how_it_was_run": "as §1"}, "Gal(a1-3)Gal(b1-3)GlcNAc": {"biological_target": "Gal(a1-3)Gal(b1-3)GlcNAc", "how_it_was_run": "as §1"}, "[18]": {"biological_target": "Gal(a1-3)Gal(b1-3)GlcNAc(b1-2)Man", "how_it_was_run": "as §1"}, "[19]": {"biological_target": "Gal(a1-3)Gal(b1-3)GlcNAc(b1-2)Man(a1-3)[Gal(a1-3)Gal(b1-3)GlcNAc(b1-2)Man(a1-6)]Man(b1-4)GlcNAc(b1-4)GlcNAc", "how_it_was_run": "as §1"}, "[20]": {"biological_target": "Gal(a1-3)Gal(b1-3)GlcNAc(b1-3)GalNAc", "how_it_was_run": "as §1"}, "[21]": {"biological_target": "Gal(a1-3)Gal(b1-3)GlcNAc(b1-6)GalNAc", "how_it_was_run": "as §1"}, "[22]": {"biological_target": "Gal(a1-3)Gal(b1-3)[Fuc(a1-4)]GlcNAc(b1-2)Man(a1-3)[Gal(a1-3)Gal(b1-3)[Fuc(a1-4)]GlcNAc(b1-2)Man(a1-6)]Man(b1-4)GlcNAc(b1-4)GlcNAc", "how_it_was_run": "as §1"}, "Gal(a1-3)Gal(b1-4)Glc": {"biological_target": "Gal(a1-3)Gal(b1-4)Glc", "how_it_was_run": "as §1"}, "Gal(a1-3)Gal(b1-4)GlcNAc": {"biological_target": "Gal(a1-3)Gal(b1-4)GlcNAc", "how_it_was_run": "as §1"}}, "note": "The list shows a part of the results."}
{"binder": "B1", "values": [{"measurement": "glycan array binding signal (z-score)", "setting": "Fuc(a1-3)GlcNAc", "result": 0.483}, {"measurement": "glycan array binding signal (z-score)", "setting": "[1]", "result": 0.816}, {"measurement": "glycan array binding signal (z-score)", "setting": "[2]", "result": -0.224}, {"measurement": "glycan array binding signal (z-score)", "setting": "[3]", "result": -0.696}, {"measurement": "glycan array binding signal (z-score)", "setting": "[4]", "result": 0.505}, {"measurement": "glycan array binding signal (z-score)", "setting": "[5]", "result": -0.154}, {"measurement": "glycan array binding signal (z-score)", "setting": "[6]", "result": -0.382}, {"measurement": "glycan array binding signal (z-score)", "setting": "[7]", "result": 0.526}, {"measurement": "glycan array binding signal (z-score)", "setting": "[8]", "result": -0.108}, {"measurement": "glycan array binding signal (z-score)", "setting": "[9]", "result": 0.47}, {"measurement": "glycan array binding signal (z-score)", "setting": "[10]", "result": 1.4}, {"measurement": "glycan array binding signal (z-score)", "setting": "[11]", "result": -0.822}, {"measurement": "glycan array binding signal (z-score)", "setting": "[12]", "result": -0.05}, {"measurement": "glycan array binding signal (z-score)", "setting": "[13]", "result": -0.662}, {"measurement": "glycan array binding signal (z-score)", "setting": "[14]", "result": -0.437}, {"measurement": "glycan array binding signal (z-score)", "setting": "[15]", "result": 8.17}, {"measurement": "glycan array binding signal (z-score)", "setting": "[16]", "result": 0.041}, {"measurement": "glycan array binding signal (z-score)", "setting": "[17]", "result": -0.499}, {"measurement": "glycan array binding signal (z-score)", "setting": "Fuc(a1-4)GlcNAc", "result": 0.243}, {"measurement": "glycan array binding signal (z-score)", "setting": "Fuc(b1-3)GlcNAc", "result": -0.625}, {"measurement": "glycan array binding signal (z-score)", "setting": "Gal(a1-2)Gal", "result": -0.959}, {"measurement": "glycan array binding signal (z-score)", "setting": "Gal(a1-3)Gal", "result": -0.569}, {"measurement": "glycan array binding signal (z-score)", "setting": "Gal(a1-3)Gal(b1-3)GlcNAc", "result": 0.457}, {"measurement": "glycan array binding signal (z-score)", "setting": "[18]", "result": -0.263}, {"measurement": "glycan array binding signal (z-score)", "setting": "[19]", "result": 0.292}, {"measurement": "glycan array binding signal (z-score)", "setting": "[20]", "result": 0.176}, {"measurement": "glycan array binding signal (z-score)", "setting": "[21]", "result": 0.214}, {"measurement": "glycan array binding signal (z-score)", "setting": "[22]", "result": -0.543}, {"measurement": "glycan array binding signal (z-score)", "setting": "Gal(a1-3)Gal(b1-4)Glc", "result": -0.237}, {"measurement": "glycan array binding signal (z-score)", "setting": "Gal(a1-3)Gal(b1-4)GlcNAc", "result": -0.395}]}
